Assay results: paper PMC4057743
These are yes or no findings as the source states them, for the method shown. Some binding calls cover weakened binding; strength is not graded here. Sequences can lack the tags named with a protein.

Biological target: GST-AtMYB44 (Arabidopsis), Q9FDW1
Assay: pull-down; competitive: 5 μg His-RCAR1/PYL9 with 0, 5 or 25 μg His-ABI1 or 25 μg His protein on immobilized GST-AtMYB44 (5 μg); 50 mM Tris-HCl pH 7.5, 100 mM NaCl, 1 mM EDTA, 0.05% β-mercaptoethanol, 0.2% Triton X-100, 10 mM MgCl2; 4 °C, 2 h; 10 μM ABA when indicated; anti-His blot; both purified
Settings: remark: other sources report otherwise

B1: His-RCAR1/PYL9, Q84MC7 1-187 (receptor)
chain: MMDGVEGGTAMYGGLETVQYVRTHHQHLCRENQCTSALVKHIKAPLHLVWSLVRRFDQPQKYKPFVSRCTVIGDPEIGSLREVNVKSGLPATTSTERLELLDDEEHILGIKIIGGDHRLKNYSSILTVHPEIIEGRAGTMVIESFVVDVPQGNTKDETCYFVEALIRCNLKSLADVSERLASQDITQ
- binding: binds
